# From PubChem BioAssay AID2451 (National Center for Advancing Translational Sciences (NCATS), 2010)
# Values joined by “and” are separate entries in the source; they are usually repeats but may differ in a detail not shown here. Identical values can stand only once. The whole screen tested about 290,000 compounds, of which about 2,100 (0.72%) were called active. This list was built around the results that the source calls inconclusive (neither active nor inactive); the mix of calls is not that of the screen. Calls follow the shape of the dose curve; as a rule, active = well fitted inhibition curve with a large enough effect; inconclusive = small, poorly fitted or top-dose-only effect, or effect the other way; inactive = flat fitted curve, though single readings scatter. Potencies beside an inconclusive call are fits to weak or partial responses and may not hold up.
# Biological target: Fructose-bisphosphate aldolase (Giardia intestinalis (strain ATCC 50803 / WB clone C6)) (UniProt A8B2U2)
# Assay: qHTS Assay for Inhibitors of Fructose-1,6-bisphosphate Aldolase from Giardia Lamblia; also: nearly all actives have a fitted effect of over 55% in size
# Conditions: purified Giardia FBPA; activity, negative = inhibition: at 59.6 µM (top of the series) unless noted
# Method in brief: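 40 nM FBPA preincubated 10 min at RT with compound (up to 57.5 uM final), then substrate plus GAPDH/TPI/NAD/arsenate coupling and diaphorase/resazurin added. Fluorescence read after 20 min at RT, 525/598 nm.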
# % is scaled to controls: 0 for no effect and ±100 for the full control effect; potency is read from the fitted curve at half-maximal effect; tags tell the direction and shape of the fitted curve.
# Chain of UniProt A8B2U2 (A8B2U2 whole entry, looked up): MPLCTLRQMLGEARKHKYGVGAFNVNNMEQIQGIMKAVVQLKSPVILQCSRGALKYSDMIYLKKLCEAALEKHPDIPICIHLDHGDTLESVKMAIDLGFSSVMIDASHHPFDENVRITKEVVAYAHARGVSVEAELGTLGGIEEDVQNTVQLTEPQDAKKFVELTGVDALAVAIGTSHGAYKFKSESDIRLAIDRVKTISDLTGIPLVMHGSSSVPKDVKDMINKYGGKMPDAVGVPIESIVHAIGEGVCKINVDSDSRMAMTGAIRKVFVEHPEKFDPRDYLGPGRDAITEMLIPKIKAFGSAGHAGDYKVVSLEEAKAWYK
SMILES,Potency,"activity, negative = inhibition"
COc1ccc(CN2CCc3c([nH]c4ccccc34)C2)cc1Br,"inconclusive: 15.8 µM [inhibitor, partial curve]",
COc1ccc(-n2nc3cc(C)c(N)c(Br)c3n2)cc1,active: 7.06 µM,
COc1cc(C(=O)N2CCN(C3CCCCC3)CC2)cc(OC)c1OC,"inconclusive: 20 µM [inhibitor, single point]",
CCCCC1=CC2=CC(=O)C(C)(OC(=O)CC)C(=O)C2=CN1Cc1ccc(OC)cc1 (stereo unspecified),"inconclusive: 706 nM [inhibitor, full curve] and inconclusive: 1.12 µM [inhibitor, single point]",
Cc1sc(NC(=O)C2CC=CCC2C(=O)O)c(C(=O)OC(C)C)c1C (stereo unspecified),"inconclusive: 15.8 µM [activator, single point]",
Cc1cccc(OCCCCNCc2ccccc2)c1,"inconclusive: 17.7 µM [inhibitor, partial curve]",
CCc1ccccc1NC(=S)N(CCCN(C)C)Cc1cc2cc3c(cc2[nH]c1=O)OCO3,,inactive: -2.68%
COc1ccc(Cn2nnnc2C(c2cc3cccc(C)c3[nH]c2=O)N2CCOCC2)cc1 (stereo unspecified),,inactive: 7.99%
Cc1cccc(C)c1NC(=O)c1cnn(-c2ccccc2)c1C,,inactive: 7.1%
C[C@H](NC(=O)[C@H]1N2C(=O)c3ccccc3C2SC1(C)C)C(=O)NCc1ccncc1 (stereo partly specified),"inconclusive: 15.8 µM [inhibitor, partial curve]",
O=C(NC(=S)N1CCN(c2ccc(O)cc2)CC1)c1cccs1,active: 12.6 µM,
Cc1ccc(CNC(=O)CSc2nc3ccccc3[nH]2)cc1,active: 12.6 µM,
COc1ccc(-n2cnnc2SCC(=O)Nc2cc(S(=O)(=O)N3CCCCC3)ccc2C)cc1,"inconclusive: 31.5 µM [activator, single point]",
O=[N+]([O-])c1ccccc1S(=O)(=O)NCc1ccc(F)cc1,,inactive: 0.0935%
Cc1ccc(C(=O)Nc2nnc(S(=O)(=O)N3CCCCCC3)s2)cc1,,inactive: -16.2%
S=C(NCCCN1CCOCC1)Nc1cccc(-c2nnc3n2CCCCC3)c1,"inconclusive: 15.8 µM [inhibitor, partial curve]",
Cc1ccc(CNCCCSc2nc(C)cc(C)n2)cc1,"inconclusive: 31.6 µM [inhibitor, single point]",
COc1ccc(C(=O)NCCSCc2cccc(Cl)c2)cc1OC,,inactive: 9.66%
O=C(N/N=C/c1cc([N+](=O)[O-])ccc1O)c1cccc(NC(=O)c2cccc(Cl)c2)c1,"inconclusive: 39.8 µM [activator, partial curve, poor fit]",
C#CCOCCOCCOCCNc1nc(N2CCOCC2)nc(N2CCN(C(=O)[C@H](CCCCN)n3cc([C@@H](N)CO)nn3)CC2)n1,"inconclusive: 15.8 µM [inhibitor, single point]",
CN(C)c1ccc(C=Nc2ccc(N(C)C)cc2)cc1,"inconclusive: 4.46 µM [inhibitor, partial curve]",
[O-][N+]1=c2ccc(Nc3ccccc3)cc2=NC12CCCCC2,"inconclusive: 5 µM [inhibitor, partial curve]",
COc1ccc(NS(=O)(=O)c2cccc(C(=O)NNC(=O)NCCCl)c2)cc1,,inactive: -1.34%
COc1ccc2cc(/C=C/C(=O)N3CCN(CC(=O)N4CCCCCC4)CC3)ccc2c1,,inactive: 3.44%
CCC(CC)C(=O)Nc1nnc(S(=O)(=O)N2CCc3ccccc32)s1,"inconclusive: 25.1 µM [inhibitor, partial curve]",
CCOC(=O)CNc1c(-c2ccc(OC)cc2)nc2ccc(Cl)cn12,"inconclusive: 17.7 µM [inhibitor, single point]",

SMILES,Potency,"activity, negative = inhibition"
Fc1ccc(NC(=S)Nc2nccs2)cc1,"inconclusive: 5 µM [inhibitor, partial curve]",
COc1cccc(C2C(C(=O)/C=C/c3ccco3)=C(O)C(=O)N2CCN2CCOCC2)c1 (stereo unspecified),"inconclusive: 4.46 µM [inhibitor, partial curve]",
CCc1nnc(NC(=O)c2ccc3ccccc3n2)s1,"inconclusive: 12.6 µM [inhibitor, partial curve]",
O=c1c(NCCc2ccc(Cl)cc2)c(-c2ccccc2)c1=O,"inconclusive: 28.2 µM [inhibitor, partial curve]",
NC(=O)c1c(-c2cccs2)csc1N,"inconclusive: 1.77 µM [inhibitor, full curve]",
Cc1nn(C)c(N)c1[N+](=O)[O-],,inactive: 5.76%
CSCC[C@H](NC(=O)[C@@H]1Cc2ccccc2CN1)C(=O)NC(C)c1ccccc1 (stereo partly specified),"inconclusive: 20 µM [inhibitor, partial curve]",
O=S(=O)(c1ccc(F)cc1)N1CN(Cc2ccco2)c2nc3ccccc3nc21,,inactive: -9.74%
Clc1ccc(Sc2ccccn2)cc1,"inconclusive: 12.6 µM [inhibitor, partial curve]",
c1ccc(CCn2cnc3ccccc32)cc1,,inactive: -0.69%
CN1c2ccccc2C(C)(C)C12CCCC(=O)N2 (stereo unspecified),"inconclusive: 17.7 µM [inhibitor, single point]",
Cc1ccc(S(=O)(=O)CC(=O)Nc2cccc(C)n2)cc1,"inconclusive: 25.1 µM [activator, single point]",
CC(C)CNC(=O)c1cccc(NC(=O)Cc2ccc(Cl)cc2)c1,,inactive: 9.39%
OCC[n+]1ccc(/C=C/c2c[nH]c3ccccc23)cc1,"inconclusive: 5 µM [inhibitor, full curve]",
CC(/C=N/NC(=O)c1c(Br)cnn1C)=C\c1ccccc1,,inactive: 2.48%
Cc1cccc(N(CC(=O)NC2CCCCC2)C(=O)CCC(=O)Nc2nccs2)c1,,inconclusive: 36.8% [activator]
CN1CCC(N(C)Cc2cccnc2)CC1,"inconclusive: 19.9 µM [inhibitor, single point]",
O=C(CS(=O)(=O)c1ccccc1)Nc1nc2ccccc2s1,,inactive: 9.4%
COc1ccc(CN2CCN(Cc3ccc(C(F)(F)F)cc3)CC2)cc1,"inconclusive: 14.1 µM [inhibitor, partial curve]",
N#Cc1cc2cc3c(cc2nc1NCCNC(=S)NCCCN1CCOCC1)OCO3,"inconclusive: 12.6 µM [inhibitor, partial curve]",
O=C(O)c1cc2c(s1)CCCC2,,inactive: 23.8%
COc1ccc(CCNC(=O)c2ccccc2NC(=O)C2=C(C)OCCS2)c(OC)c1,,inactive: -18.5%
CN(C)CCCN(C(=O)c1ccc([N+](=O)[O-])o1)c1nc2cc3c(cc2s1)OCO3,"inconclusive: 22.4 µM [inhibitor, single point]",
NC(=O)C1CCN(C(=O)c2ccc3c(=O)n(Cc4cccc(Br)c4)c(=S)[nH]c3c2)CC1,"inconclusive: 8.91 µM [inhibitor, partial curve]",
S=C(Nc1cccc(Cl)c1)Nc1cccc2cnccc12,active: 0.251 µM,
CS(=O)(=O)Nc1ccc(N2CCN(c3ccc(C(F)(F)F)cn3)CC2)nc1,,inactive: 2.33%

SMILES,Potency,"activity, negative = inhibition"
CC(NC(=O)c1ccco1)C(c1cccs1)N1CCN(c2ccc(F)cc2)CC1 (stereo unspecified),"inconclusive: 25.1 µM [activator, partial curve, poor fit]",
COc1ccc(C(=O)N/C(=C\c2cn(C)c3ccccc23)C(=O)NCCN2CCOCC2)cc1OC,"inconclusive: 22.4 µM [inhibitor, single point]",
CSCC(=O)NS(=O)(=O)c1ccc(C)cc1,"inconclusive: 19.9 µM [inhibitor, single point]",
CCCCNC(=O)c1cc(-c2ccc(OC)c(OC)c2)on1,,inactive: 1.18%
Clc1ccc(-c2nnc3c4ccccc4nc(N4CCOCC4)n23)cc1Cl,,inactive: 0.831%
COc1cc2c(cc1OC)C(Cc1ccc(O)cc1)NCC2 (stereo unspecified),,inactive: -2.89%
Oc1ccccc1/C=N/c1c(-c2ccco2)nc2ccccn12,"inconclusive: 11.2 µM [inhibitor, partial curve]",
C/C(CC(=O)Nc1ccc(N(C)C)cc1)=N\NC(=O)c1ccccc1O,,inactive: -22.6%
COCCSc1nc2sc3c(c2c(=O)n1-c1ccccc1)CCN(C)C3,,inactive: -27.6%
Cc1oc(-c2ccc(F)cc2)nc1CN(Cc1ccccn1)CC1CCCO1 (stereo unspecified),"inconclusive: 17.7 µM [inhibitor, single point]",
COc1cc(/C=C2\SC(c3ccc(C)cc3)=NC2=O)cc(OC)c1O,active: 14.1 µM,
CCCS(=O)(=O)N1CCN(Cc2ccc3c(c2)c2ccccc2n3CC)CC1,"inconclusive: 12.6 µM [inhibitor, partial curve]",
CCc1cc(-c2n[nH]c(C)c2-c2nc3ccccc3n2C)c(O)cc1O,"inconclusive: 15.8 µM [inhibitor, partial curve]",
Cc1ccc(/C=C2\SC(=S)N(CC3CCCO3)C2=O)o1 (stereo unspecified),active: 17.7 µM,
CN(CC(=O)N1CCCCCC1)S(=O)(=O)c1ccccc1,,inactive: -0.359%
Cc1ccc2c(=O)c3ccccc3n(CCCN)c2c1C,"inconclusive: 14.1 µM [inhibitor, partial curve]",
CC(C)Oc1ccc(C(CCNCc2ccc(O)cc2)c2ccccc2)cc1 (stereo unspecified),,inactive: -1.39%
O=C(O)CCN1C(=O)c2ccncc2C1=O,,inactive: 11.5%
O=C(O)c1cc(NS(=O)(=O)c2cccc3ccccc23)ccc1O,"inconclusive: 17.7 µM [activator, partial curve]",
COC(=O)C1=C(Nc2ccc(OC)cc2)C=C(C)C(C(=O)OC)C1c1ccc(C)cc1 (stereo unspecified),"inconclusive: 15.8 µM [inhibitor, single point]",
COc1cccc(CNc2ccc(F)c([N+](=O)[O-])c2)c1O,,inactive: -4.81%
NC(c1ccccc1)c1cccnc1 (stereo unspecified),active: 10 µM,
Cc1cc(Cl)ccc1NC(=S)Nc1ccccn1,,inactive: 2.15%
COC(=O)C1=C(C)OC(N)=C(C#N)C1c1cc2cc(C)ccc2nc1Cl (stereo unspecified),"inconclusive: 19.9 µM [inhibitor, single point]",
